{"source": "the supplement of paper PMC8728848", "binders": {"B1": {"name": "Als1 (Candida albicans), P46590 (protein)", "chain": "KTITGVFDSFNSLTWSNAANYAFKGPGYPTWNAVLGWSLDGTSANPGDTFTLNMPCVFKYTTSQTSVDLTADGVKYATCQFYSGEEFTTFSTLTCTVNDALKSSIKAFGTVTLPIAFNVGGTGSSTDLEDSKCFTAGTNTVTFNDGDKDISIDVEFEKSTVDPSGYLYASRVMPSLNKVTTLFVAPQCENGYTSGTMGFSSSNGDVAIDCSNIHIGITKGLNDWNYPVSSESFSYTKTCTSNGIQIKYQNVPAGYRPFIDAYISATDVNQYTLAYTNDYTCAGSRLQSKPFTLRWTGYKNSDAGSNGIVIVATTRTVTDSTTAVTTLPFNPSVDKTKTIEILQPIPTTTITTSYVGVTTSYLTKTAPIGETATVIVDVPYHTTTTVTSEWTGTITTTTTRTNPTDSIDTVVVQVP"}}, "experiment_in_all_cases": "glycan array binding signal (z-score within array); higher = stronger binding", "conditions_in_all_cases": "glycan notation: IUPAC condensed, linker removed", "key": {"[1]": {"target": "Fuc(a1-3)[Gal3S(b1-4)]GlcNAc", "procedure,_shortened": "(§1)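 Arrays were curated from the Consortium for Functional Glycomics database, 3228 in total, and kept only where the protein sequence was available. Binding is expressed as a within-array Z-score. This score was averaged across arrays of the same protein sequence at different concentrations or buffers and across linkers, and negative values can be read as non-binding.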"}, "[2]": {"target": "Fuc(a1-3)[Gal3S(b1-4)]GlcNAc6S", "procedure,_shortened": "as §1"}, "[3]": {"target": "Fuc(a1-3)[GalNAc(b1-4)]GlcNAc", "procedure,_shortened": "as §1"}, "[4]": {"target": "Fuc(a1-3)[GalNAc(b1-4)]GlcNAc6S", "procedure,_shortened": "as §1"}, "Fuc(a1-4)GlcNAc": {"target": "Fuc(a1-4)GlcNAc", "procedure,_shortened": "as §1"}, "Fuc(b1-3)GlcNAc": {"target": "Fuc(b1-3)GlcNAc", "procedure,_shortened": "as §1"}, "Gal(a1-2)Gal": {"target": "Gal(a1-2)Gal", "procedure,_shortened": "as §1"}, "Gal(a1-3)Gal": {"target": "Gal(a1-3)Gal", "procedure,_shortened": "as §1"}, "Gal(a1-3)Gal(b1-3)GlcNAc": {"target": "Gal(a1-3)Gal(b1-3)GlcNAc", "procedure,_shortened": "as §1"}, "[5]": {"target": "Gal(a1-3)Gal(b1-3)GlcNAc(b1-2)Man", "procedure,_shortened": "as §1"}, "[6]": {"target": "Gal(a1-3)Gal(b1-3)GlcNAc(b1-2)Man(a1-3)[Gal(a1-3)Gal(b1-3)GlcNAc(b1-2)Man(a1-6)]Man(b1-4)GlcNAc(b1-4)GlcNAc", "procedure,_shortened": "as §1"}, "[7]": {"target": "Gal(a1-3)Gal(b1-3)GlcNAc(b1-3)GalNAc", "procedure,_shortened": "as §1"}, "[8]": {"target": "Gal(a1-3)Gal(b1-3)GlcNAc(b1-6)GalNAc", "procedure,_shortened": "as §1"}, "[9]": {"target": "Gal(a1-3)Gal(b1-3)[Fuc(a1-4)]GlcNAc(b1-2)Man(a1-3)[Gal(a1-3)Gal(b1-3)[Fuc(a1-4)]GlcNAc(b1-2)Man(a1-6)]Man(b1-4)GlcNAc(b1-4)GlcNAc", "procedure,_shortened": "as §1"}, "Gal(a1-3)Gal(b1-4)Glc": {"target": "Gal(a1-3)Gal(b1-4)Glc", "procedure,_shortened": "as §1"}, "Gal(a1-3)Gal(b1-4)GlcNAc": {"target": "Gal(a1-3)Gal(b1-4)GlcNAc", "procedure,_shortened": "as §1"}, "[10]": {"target": "Gal(a1-3)Gal(b1-4)GlcNAc(b1-2)Man", "procedure,_shortened": "as §1"}, "[11]": {"target": "Gal(a1-3)Gal(b1-4)GlcNAc(b1-2)Man(a1-3)[Gal(a1-3)Gal(b1-4)GlcNAc(b1-2)Man(a1-6)]Man(b1-4)GlcNAc(b1-4)GlcNAc", "procedure,_shortened": "as §1"}, "[12]": {"target": "Gal(a1-3)Gal(b1-4)GlcNAc(b1-3)GalNAc", "procedure,_shortened": "as §1"}, "[13]": {"target": "Gal(a1-3)Gal(b1-4)GlcNAc(b1-6)GalNAc", "procedure,_shortened": "as §1"}, "[14]": {"target": "Gal(a1-3)Gal(b1-4)[Fuc(a1-3)]GlcNAc", "procedure,_shortened": "as §1"}, "[15]": {"target": "Gal(a1-3)Gal(b1-4)[Fuc(a1-3)]GlcNAc(b1-2)Man(a1-3)[Gal(a1-3)Gal(b1-4)[Fuc(a1-3)]GlcNAc(b1-2)Man(a1-6)]Man(b1-4)GlcNAc(b1-4)GlcNAc", "procedure,_shortened": "as §1"}, "Gal(a1-3)GalNAc": {"target": "Gal(a1-3)GalNAc", "procedure,_shortened": "as §1"}, "[16]": {"target": "Gal(a1-3)[Gal(a1-4)]Gal(b1-4)GlcNAc", "procedure,_shortened": "as §1"}, "[17]": {"target": "Gal(a1-4)Gal(b1-3)GlcNAc(b1-2)Man(a1-3)[Gal(a1-4)Gal(b1-3)GlcNAc(b1-2)Man(a1-6)]Man(b1-4)GlcNAc(b1-4)GlcNAc", "procedure,_shortened": "as §1"}, "Gal(a1-4)Gal(b1-4)Glc": {"target": "Gal(a1-4)Gal(b1-4)Glc", "procedure,_shortened": "as §1"}, "Gal(a1-4)Gal(b1-4)GlcNAc": {"target": "Gal(a1-4)Gal(b1-4)GlcNAc", "procedure,_shortened": "as §1"}, "[18]": {"target": "Gal(a1-4)Gal(b1-4)GlcNAc(b1-2)Man(a1-3)[Gal(a1-4)Gal(b1-4)GlcNAc(b1-2)Man(a1-6)]Man(b1-4)GlcNAc(b1-4)GlcNAc", "procedure,_shortened": "as §1"}, "[19]": {"target": "Gal(a1-4)Gal(b1-4)GlcNAc(b1-3)Gal(b1-4)Glc", "procedure,_shortened": "as §1"}, "Gal(a1-4)GlcNAc": {"target": "Gal(a1-4)GlcNAc", "procedure,_shortened": "as §1"}, "Gal(a1-6)Glc": {"target": "Gal(a1-6)Glc", "procedure,_shortened": "as §1"}, "Gal(b1-2)Gal": {"target": "Gal(b1-2)Gal", "procedure,_shortened": "as §1"}, "Gal(b1-3)Gal": {"target": "Gal(b1-3)Gal", "procedure,_shortened": "as §1"}, "Gal(b1-3)Gal(b1-4)GlcNAc": {"target": "Gal(b1-3)Gal(b1-4)GlcNAc", "procedure,_shortened": "as §1"}, "Gal(b1-3)GalNAc": {"target": "Gal(b1-3)GalNAc", "procedure,_shortened": "as §1"}, "[20]": {"target": "Gal(b1-3)GalNAc(a1-3)[Fuc(a1-2)]Gal(b1-4)Glc", "procedure,_shortened": "as §1"}, "[21]": {"target": "Gal(b1-3)GalNAc(a1-3)[Fuc(a1-2)]Gal(b1-4)GlcNAc", "procedure,_shortened": "as §1"}}, "note": "The list shows a part of the results."}
{"binder": "B1", "values": [{"measurement": "glycan array binding signal (z-score)", "setting": "[1]", "result": 0.309}, {"measurement": "glycan array binding signal (z-score)", "setting": "[2]", "result": -0.289}, {"measurement": "glycan array binding signal (z-score)", "setting": "[3]", "result": -0.193}, {"measurement": "glycan array binding signal (z-score)", "setting": "[4]", "result": 0.066}, {"measurement": "glycan array binding signal (z-score)", "setting": "Fuc(a1-4)GlcNAc", "result": -0.383}, {"measurement": "glycan array binding signal (z-score)", "setting": "Fuc(b1-3)GlcNAc", "result": -0.181}, {"measurement": "glycan array binding signal (z-score)", "setting": "Gal(a1-2)Gal", "result": -0.177}, {"measurement": "glycan array binding signal (z-score)", "setting": "Gal(a1-3)Gal", "result": -0.264}, {"measurement": "glycan array binding signal (z-score)", "setting": "Gal(a1-3)Gal(b1-3)GlcNAc", "result": -0.93}, {"measurement": "glycan array binding signal (z-score)", "setting": "[5]", "result": -0.555}, {"measurement": "glycan array binding signal (z-score)", "setting": "[6]", "result": -0.109}, {"measurement": "glycan array binding signal (z-score)", "setting": "[7]", "result": -0.58}, {"measurement": "glycan array binding signal (z-score)", "setting": "[8]", "result": -0.689}, {"measurement": "glycan array binding signal (z-score)", "setting": "[9]", "result": 0.447}, {"measurement": "glycan array binding signal (z-score)", "setting": "Gal(a1-3)Gal(b1-4)Glc", "result": -0.664}, {"measurement": "glycan array binding signal (z-score)", "setting": "Gal(a1-3)Gal(b1-4)GlcNAc", "result": -0.705}, {"measurement": "glycan array binding signal (z-score)", "setting": "[10]", "result": -0.755}, {"measurement": "glycan array binding signal (z-score)", "setting": "[11]", "result": -0.571}, {"measurement": "glycan array binding signal (z-score)", "setting": "[12]", "result": -0.128}, {"measurement": "glycan array binding signal (z-score)", "setting": "[13]", "result": -0.612}, {"measurement": "glycan array binding signal (z-score)", "setting": "[14]", "result": 1.23}, {"measurement": "glycan array binding signal (z-score)", "setting": "[15]", "result": -0.352}, {"measurement": "glycan array binding signal (z-score)", "setting": "Gal(a1-3)GalNAc", "result": -0.407}, {"measurement": "glycan array binding signal (z-score)", "setting": "[16]", "result": -0.781}, {"measurement": "glycan array binding signal (z-score)", "setting": "[17]", "result": -0.549}, {"measurement": "glycan array binding signal (z-score)", "setting": "Gal(a1-4)Gal(b1-4)Glc", "result": -0.57}, {"measurement": "glycan array binding signal (z-score)", "setting": "Gal(a1-4)Gal(b1-4)GlcNAc", "result": -0.303}, {"measurement": "glycan array binding signal (z-score)", "setting": "[18]", "result": -0.505}, {"measurement": "glycan array binding signal (z-score)", "setting": "[19]", "result": -0.568}, {"measurement": "glycan array binding signal (z-score)", "setting": "Gal(a1-4)GlcNAc", "result": -0.611}, {"measurement": "glycan array binding signal (z-score)", "setting": "Gal(a1-6)Glc", "result": -0.227}, {"measurement": "glycan array binding signal (z-score)", "setting": "Gal(b1-2)Gal", "result": -0.234}, {"measurement": "glycan array binding signal (z-score)", "setting": "Gal(b1-3)Gal", "result": -0.458}, {"measurement": "glycan array binding signal (z-score)", "setting": "Gal(b1-3)Gal(b1-4)GlcNAc", "result": -0.058}, {"measurement": "glycan array binding signal (z-score)", "setting": "Gal(b1-3)GalNAc", "result": -0.348}, {"measurement": "glycan array binding signal (z-score)", "setting": "[20]", "result": -0.394}, {"measurement": "glycan array binding signal (z-score)", "setting": "[21]", "result": -0.578}]}
